Test results taken from paper PMC6249397.
These are yes or no findings as the source states them, for the method shown. Binding seen in cells or lysates may run through a third protein. Some results given as binding are weak or reduced against the parent protein; the word gives no strength. For some assays here: Sequences can lack the tags named with a protein.

How the values were obtained:
Myc-tagged PAQR3 = molecular target: T1, Myc-tagged PAQR3 (UniProt Q6TCH7); test: co-IP; PAQR3 construct expressed in HEK293T cells; endogenous Sec13 and Sec31A; cell lysate 24 hr after transfection used in IP and IB
T1 sequence: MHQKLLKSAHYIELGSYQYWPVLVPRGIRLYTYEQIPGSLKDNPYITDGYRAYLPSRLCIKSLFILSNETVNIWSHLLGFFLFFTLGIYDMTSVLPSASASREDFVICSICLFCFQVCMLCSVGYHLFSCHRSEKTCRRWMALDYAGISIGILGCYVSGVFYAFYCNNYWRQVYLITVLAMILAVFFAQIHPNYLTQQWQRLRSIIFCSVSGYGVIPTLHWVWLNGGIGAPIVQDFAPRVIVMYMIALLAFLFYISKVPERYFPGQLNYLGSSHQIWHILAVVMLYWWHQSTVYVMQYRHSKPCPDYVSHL

[1] = molecular target: T2, PAQR3 with deletion of N-terminal 1-70 amino acids (UniProt Q6TCH7); test: as above
T2 sequence: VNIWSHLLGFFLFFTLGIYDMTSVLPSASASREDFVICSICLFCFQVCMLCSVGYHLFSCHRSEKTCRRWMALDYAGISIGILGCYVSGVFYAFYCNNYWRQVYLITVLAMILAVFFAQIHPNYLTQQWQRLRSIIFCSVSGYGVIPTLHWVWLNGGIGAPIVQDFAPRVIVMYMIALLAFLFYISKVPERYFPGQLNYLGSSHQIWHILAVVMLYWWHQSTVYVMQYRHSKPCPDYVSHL

B1: endogenous Sec31A (protein, UniProt O94979 1-1220)
chain: MKLKEVDRTAMQAWSPAQNHPIYLATGTSAQQLDATFSTNASLEIFELDLSDPSLDMKSCATFSSSHRYHKLIWGPYKMDSKGDVSGVLIAGGENGNIILYDPSKIIAGDKEVVIAQNDKHTGPVRALDVNIFQTNLVASGANESEIYIWDLNNFATPMTPGAKTQPPEDISCIAWNRQVQHILASASPSGRATVWDLRKNEPIIKVSDHSNRMHCSGLAWHPDVATQMVLASEDDRLPVIQMWDLRFASSPLRVLENHARGILAIAWSMADPELLLSCGKDAKILCSNPNTGEVLYELPTNTQWCFDIQWCPRNPAVLSAASFDGRISVYSIMGGSTDGLRQKQVDKLSSSFGNLDPFGTGQPLPPLQIPQQTAQHSIVLPLKKPPKWIRRPVGASFSFGGKLVTFENVRMPSHQGAEQQQQQHHVFISQVVTEKEFLSRSDQLQQAVQSQGFINYCQKKIDASQTEFEKNVWSFLKVNFEDDSRGKYLELLGYRKEDLGKKIALALNKVDGANVALKDSDQVAQSDGEESPAAEEQLLGEHIKEEKEESEFLPSSGGTFNISVSGDIDGLITQALLTGNFESAVDLCLHDNRMADAIILAIAGGQELLARTQKKYFAKSQSKITRLITAVVMKNWKEIVESCDLKNWREALAAVLTYAKPDEFSALCDLLGTRLENEGDSLLQTQACLCYICAGNVEKLVACWTKAQDGSHPLSLQDLIEKVVILRKAVQLTQAMDTSTVGVLLAAKMSQYANLLAAQGSIAAALAFLPDNTNQPNIMQLRDRLCRAQGEPVAGHESPKIPYEKQQLPKGRPGPVAGHHQMPRVQTQQYYPHGENPPPPGFIMHGNVNPNAAGQLPTSPGHMHTQVPPYPQPQPYQPAQPYPFGTGGSAMYRPQQPVAPPTSNAYPNTPYISSASSYTGQSQLYAAQHQASSPTSSPATSFPPPPSSGASFQHGGPGAPPSSSAYALPPGTTGTLPAASELPASQRTGPQNGWNDPPALNRVPKKKKMPENFMPPVPITSPIMNPLGDPQSQMLQQQPSAPVPLSSQSSFPQPHLPGGQPFHGVQQPLGQTGMPPSFSKPNIEGAPGAPIGNTFQHVQSLPTKKITKKPIPDEHLILKTTFEDLIQRCLSSATDPQTKRKLDDASKRLEFLYDKLREQTLSPTITSGLHNIARSIETRNYSEGLTMHTHIVSTSNFSETSAFMPVLKVVLTQANKLGV
Myc-tagged PAQR3
  binding: binds
[1]
  binding: no binding
